# Data as given in the supplement of paper PMC4604168 (melanoma cell lines).
# This is one part of the list. Repeats are few or missing, and single values can be far off.
# How the values were obtained:
# Test in all cases: cell count relative to DMSO control; melanoma cells; higher = more viable cells
# Conditions in all cases: library dose: low library concentration; 72 h
# MZ2-MEL = test system: MZ2-MEL
# MeWo = test system: MeWo
# RPMI7951 = test system: RPMI7951
# RVH-421 = test system: RVH-421
# SkMel28 = test system: SkMel28
# SkMel2 = test system: SkMel2
# SkMel30 = test system: SkMel30
# SkMel5 = test system: SkMel5
# UACC257 = test system: UACC257
# UACC62 = test system: UACC62
# WM115 = test system: WM115
# WM1716 = test system: WM1716
# WM1745 = test system: WM1745
# WM3526 = test system: WM3526
# WM3619 = test system: WM3619
# WM451Lu = test system: WM451Lu
# 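Also: cell number obtained by counting DAPI-stained nuclei in high-throughput microscope images with image analysis software, screen run in 1,536-well plates.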
SMILES,cell count (MZ2-MEL) [%],cell count (MeWo) [%],cell count (RPMI7951) [%],cell count (RVH-421) [%],cell count (SkMel28) [%],cell count (SkMel2) [%],cell count (SkMel30) [%],cell count (SkMel5) [%],cell count (UACC257) [%],cell count (UACC62) [%],cell count (WM115) [%],cell count (WM1716) [%],cell count (WM1745) [%],cell count (WM3526) [%],cell count (WM3619) [%],cell count (WM451Lu) [%]
"CNC(=O)c1cc(Oc2ccc(NC(=O)Nc3ccc(Cl)c(C(F)(F)F)c3)cc2)ccn1 [sorafenib] + CC(C)(C)c1cnc(CSc2cnc(NC(=O)C3CCNCC3)s2)o1 [SNS-032] (first compound 0.4 µM, partner dose 0.01 µM)",102,96.5,63.1,83.4,96.2,96.4,101,100,104,82.1,100,104,90.4,94.4,82.5,97.4
"CS(=O)(=O)CCNCc1ccc(-c2ccc3ncnc(Nc4ccc(OCc5cccc(F)c5)c(Cl)c4)c3c2)o1 [lapatinib] + CCCCCCCCCCCC1=C(O)C(=O)C=C(O)C1=O [Embelin] (first compound 0.8 µM, partner dose 1.2 µM)",97.3,90.3,98.7,99.7,92.8,98,92.4,100,84.1,95.1,105,104,97.2,94,95.9,104
"CN1CCN(c2ccc3nc(-c4c(N)c5c(F)cccc5[nH]c4=O)[nH]c3c2)CC1 [Dovitinib] + Oc1cc(-c2nc(-c3ccccc3)[nH]c2-c2ccncc2)ccc1Cl [L779450] (first compound 0.1 µM, partner dose 0.2 µM)",74.2,98.9,108,76,80.5,109,86.8,87.9,85.2,67.1,82.9,107,87.1,81.2,93.7,100
"C=CCNC1=C2C[C@@H](C)C[C@H](OC)[C@H](O)[C@@H](C)/C=C(\C)[C@H](OC(N)=O)[C@@H](OC)/C=C\C=C(/C)C(=O)NC(=CC1=O)C2=O [Tanespimycin] + O=C(CCCCCCC(=O)Nc1ccccc1)NO [vorinostat] (first compound 0.002 µM, partner dose 0.08 µM)",104,84.9,77.3,110,81.5,93.2,92.8,89.1,81.3,88.7,79.5,107,79.2,87.6,84.1,90.3
"CS(=O)(=O)CCNCc1ccc(-c2ccc3ncnc(Nc4ccc(OCc5cccc(F)c5)c(Cl)c4)c3c2)o1 [lapatinib] + COc1ccc(COc2ccc(Cc3cnc(N)nc3N)cc2OC)cc1 [GW2580] (first compound 0.8 µM, partner dose 1 µM)",89.9,93.7,86.2,95,107,98.5,86.9,103,112,94.7,99.9,113,87.7,80.7,114,99.9
"CNC(=O)c1cc(Oc2ccc(NC(=O)Nc3ccc(Cl)c(C(F)(F)F)c3)cc2)ccn1 [sorafenib] + CC1(C)NC(=O)N(c2ccc([N+](=O)[O-])c(C(F)(F)F)c2)C1=O [nilutamide] (first compound 0.4 µM, partner dose 1 µM)",100,99.2,91,98.6,88.1,102,93.3,97.6,79,87.9,98.9,104,105,86.1,100,101
"CNC(=O)c1cc(Oc2ccc(NC(=O)Nc3ccc(Cl)c(C(F)(F)F)c3)cc2)ccn1 [sorafenib] + COc1cc(Nc2ncc(F)c(Nc3ccc4c(n3)NC(=O)C(C)(C)O4)n2)cc(OC)c1OC [Tamatinib] (first compound 0.4 µM, partner dose 0.4 µM)",93.5,91.4,67.6,121,91.7,91.2,87.7,84.9,77.7,82.2,100,106,75.5,75.5,94.9,106
"C=CCNC1=C2C[C@@H](C)C[C@H](OC)[C@H](O)[C@@H](C)/C=C(\C)[C@H](OC(N)=O)[C@@H](OC)/C=C\C=C(/C)C(=O)NC(=CC1=O)C2=O [Tanespimycin] + Cc1cc([N+](=O)[O-])ccc1NS(=O)(=O)c1cc(Cl)ccc1Cl [FH535] (first compound 0.002 µM, partner dose 1 µM)",99.1,95.1,88.9,101,95.5,101,110,84.8,98.7,89.4,75.4,89.7,71.8,102,101,78.9
